Measured values reported in PubChem BioAssay AID1452 (National Center for Advancing Translational Sciences (NCATS), 2008).
In all, about 150,000 compounds went through this assay and about 190 (0.13%) were called active. The shares of active, inactive and inconclusive entries below differ from those in the screen. The call rests on the fitted dose curve; in most records, active means well fitted inhibition curve with a large enough effect; inconclusive means small, poorly fitted or top-dose-only effect; inactive means flat fitted curve, though single readings scatter. A potency beside an inconclusive call is a rough fit, not a confirmed value.

molecular target: Polyunsaturated fatty acid lipoxygenase ALOX12 (Homo sapiens) (UniProt P18054); experiment: qHTS Assay for Inhibitors of 12-hLO (12-human lipoxygenase); conditions: purified 12-hLO, xylenol orange hydroperoxide absorbance; series mostly up to 57.1 µM; further: nearly all actives have a fitted effect of over 55% in size
Chain of UniProt P18054 (P18054 whole entry, looked up): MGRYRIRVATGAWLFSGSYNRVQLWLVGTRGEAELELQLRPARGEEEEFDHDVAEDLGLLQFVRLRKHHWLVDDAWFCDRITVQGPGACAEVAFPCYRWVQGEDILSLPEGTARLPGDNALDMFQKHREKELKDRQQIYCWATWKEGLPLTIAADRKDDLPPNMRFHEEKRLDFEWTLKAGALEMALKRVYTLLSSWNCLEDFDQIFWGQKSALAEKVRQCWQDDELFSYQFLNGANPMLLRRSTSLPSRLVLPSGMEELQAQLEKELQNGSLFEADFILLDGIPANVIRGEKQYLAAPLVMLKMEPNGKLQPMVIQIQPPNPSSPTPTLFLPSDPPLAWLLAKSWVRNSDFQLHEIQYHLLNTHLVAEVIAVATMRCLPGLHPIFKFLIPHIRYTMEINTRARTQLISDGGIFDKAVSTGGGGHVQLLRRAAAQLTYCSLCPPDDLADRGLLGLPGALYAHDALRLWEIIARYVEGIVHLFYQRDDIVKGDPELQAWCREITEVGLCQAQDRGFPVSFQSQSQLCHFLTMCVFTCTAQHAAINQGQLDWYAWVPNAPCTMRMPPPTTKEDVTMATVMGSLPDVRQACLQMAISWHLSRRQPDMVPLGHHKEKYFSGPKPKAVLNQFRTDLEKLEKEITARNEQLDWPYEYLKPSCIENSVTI
Summary of the method: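 Purified human 12hLO (150 nM), preincubated 15 min with compound, then 40 uM arachidonic acid for 30 min, room temperature, Hepes pH 7.0 with 0.01% Triton X-100. Hydroperoxide detected by ferrous iron/xylenol orange; 573/405 nm absorbance ratio gives reaction progress.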
On the % scale 0 is the no-effect control and ±100 the full control effect; potency means the concentration at half of the fitted maximal effect; tags describe the fitted curve by direction and shape.

Structure (SMILES)	Potency	activity change, negative = inhibition
COc1ccc(-c2nc(NC(=O)c3cc(C(C)(C)C)nn3C)sc2C)cc1	inconclusive: 39.8 µM [inhibitor, single point]	
Nn1cnnc1SC1CCCCC1NS(=O)(=O)c1ccccc1 (centres undefined)	inactive	
O=C1CSC2=NCN(c3ccc4c(c3)OCO4)CN12	inactive	
COc1ccc(C2CC(c3ccc(Br)cc3)Nc3nc(N)nn32)cc1 (centres undefined)	inconclusive: 31.6 µM [inhibitor, partial curve]	
CC(=O)Nc1ccc(NC(=S)Nc2ccccc2)cc1	inactive	
CC(C)C(C)NC(=O)CSc1nc2scc(-c3ccco3)c2c(=O)n1-c1ccccc1 (centres undefined)	inconclusive: 11.2 µM [inhibitor, partial curve]	
Cc1ccc(S(=O)(=O)/N=C2/NC(=O)/C(=C/c3ccc(Br)o3)S2)cc1	inconclusive: 12.6 µM [inhibitor, partial curve]	
CCOC(=O)CSC1=C(C#N)C(=O)NC(c2ccc(OC)c(OC)c2)S1 (centres undefined)	inconclusive: 39.8 µM [inhibitor, single point]	
Cc1ccc(NC(=O)c2cc(-c3ccc(C)o3)nc3ccccc23)nc1	inconclusive: 22.4 µM [inhibitor, single point]	
Cc1ccc(NC(=S)NCc2ccc3[nH]c4c(c3c2)CCCC4)cc1	inconclusive: 12.6 µM [inhibitor, partial curve]	
Cc1ccc(CNC(=O)COc2ccc3c(c2)CCC3)cc1	inconclusive: 39.8 µM [inhibitor, single point]	
CCC1(c2ccc(Cl)cc2)NC(=S)N(c2ccccc2)N1 (centres undefined)	inconclusive: 3.98 µM [inhibitor, partial curve]	
CC(=O)C1=C(C)NC(SCC(=O)c2ccc(Cl)cc2Cl)=C(C#N)C1c1ccco1 (centres undefined)	inconclusive: 12.6 µM [inhibitor, partial curve]	
O=C1C2Sc3[nH]c(=O)sc3C(c3ccccc3)C2C(=O)N1c1ccc(Cl)cc1 (centres undefined)	inconclusive: 14.1 µM [inhibitor, partial curve]	
CC1=C(C(=O)Nc2ccc([N+](=O)[O-])cc2)C(c2cccc(C(F)(F)F)c2)NC(=S)N1c1ccccc1 (centres undefined)	active: 22.4 µM	
COC(=O)c1c(-c2cc(OC)c(OC)c(OC)c2)c2ccnc(OCc3ncccn3)c2c(=O)n1Cc1ccnc(C)c1	inactive	
Cc1ccc(NC(=O)COC(=O)/C=C/c2cccc(Cl)c2)cc1S(=O)(=O)N1CCOCC1	inactive	
Cc1cc(C)cc(NC(=O)c2ccc(CSc3nnc(C)s3)cc2)c1	inactive	
O=C(c1ccc(F)cc1)C1CCN(CCn2c(=O)[nH]c3ccccc3c2=O)CC1		inactive: -5.62% [at 0.00818 µM]
